Holding throughout (experiment): Primary Screen for Target Class Profiling of Small Molecule Inhibitors of Methyltransferases
In test [1] the target is Glycine N-methyltransferase (Homo sapiens) (UniProt Q14749). As to conditions: purified enzyme, MTase-Glo SAH luminescence; measured here: GNMT inhibition; at 40 µM; stronger effect = lower value. Put shortly: (§1)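 Each enzyme was assayed with SAM and its substrate. SAH formation detected by MTase-Glo luminescence; single-point 40 uM screen[…].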
Test [2] concerns the target Guanidinoacetate N-methyltransferase (Homo sapiens) (UniProt Q14353). As to conditions: purified enzyme, MTase-Glo SAH luminescence; measured here: GAMT inhibition; at 40 µM; stronger effect = lower value. Put shortly:
as §1

The target of test [3] is Histamine N-methyltransferase (Homo sapiens) (UniProt P50135). As to conditions: purified enzyme, MTase-Glo SAH luminescence; measured here: HNMT inhibition; at 40 µM; stronger effect = lower value. In short, it runs like this:
as §1

The target of test [4] is Nicotinamide N-methyltransferase (Homo sapiens) (UniProt P40261). As to conditions: purified enzyme, MTase-Glo SAH luminescence; measured here: NNMT inhibition; at 40 µM; stronger effect = lower value. In short, it runs like this: as §1
The target of test [5] is Phenylethanolamine N-methyltransferase (Homo sapiens) (UniProt P11086). As to conditions: purified enzyme, MTase-Glo SAH luminescence; measured here: PNMT inhibition; at 40 µM; stronger effect = lower value. In short, it runs like this: as §1

Molecules are shown by their SMILES. The list shows a part of the results. These are further read-outs of the screen, such as a control signal, another cell line or another target. No call is given for them.

We go through 29 compounds from PubChem BioAssay AID1745853 (National Center for Advancing Translational Sciences (NCATS), 2022).
% is scaled to controls: 0 for no effect and ±100 for the full control effect.

Take `CN1CCN(C(=O)c2ccc3nnc(C4CCCC4)n3c2)CC1`: the activity change, negative = inhibition was 0.094% in test [1]; 2.05% in test [2]; 1.09% in test [3]; -4.27% in test [4]; -2.75% in test [5].

In the case of `Cc1ccc(NC(=O)Cn2nc3n(C(C)C)c(=O)c4ccc(C(=O)NC(C)C)cc4n3c2=O)cc1F`, the activity change, negative = inhibition in test [1] was found to be 5.15%; in test [2] it was 0.839%; in test [3], 4.13%; in test [4] it was 4.22%; in test [5] it was 4.59%.

With `CN1C(=O)c2cc(NC(=O)C3CCN(S(=O)(=O)N4CCCC4)CC3)ccc2N2CCN=C12`, the activity change, negative = inhibition in test [1] was -6.58%; in test [2], -5.17%; in test [3], -2.09%; in test [4] it was -10.4%; in test [5], -7.01%.

For the compound `CCCn1c(=O)c2ccc(C(=O)NC3CCCCC3)cc2n2c(=O)n(CC(=O)N(C)c3ccccc3)nc12`, the activity change, negative = inhibition in test [1] was 3.2%; in test [2] it was 4.74%; in test [3], 6.58%; in test [4], -3.1%; in test [5], -0.218%.

Regarding `CO[C@@H]1CO[C@H]2[C@@H]1OC[C@@H]2NC(=S)Nc1ccccc1`, the activity change, negative = inhibition was -2.39% in test [1]; -2.58% in test [2]; 0.7% in test [3]; -5.86% in test [4]; -1.92% in test [5].

Take `CCCn1c(=O)c2ccc(C(=O)NC(C)CC)cc2n2c(=O)n(CC(=O)Nc3ccc(C)cc3C)nc12` (stereo not given): the activity change, negative = inhibition in test [1] is -6.76%; in test [2], -2.94%; in test [3] it was -8.73%; in test [4], -9.58%; in test [5], -5.77%.

On to `COC[C@@H]1CN(S(=O)(=O)c2ccccc2C)C[C@H]1c1nc(C)no1`, for which the activity change, negative = inhibition in test [1] is 3.05%; in test [2] it was -1.56%; in test [3], 1.61%; in test [4], -2.9%; in test [5], 0.204%.

In the case of `CCCN(Cc1ccc(F)cc1)C(=O)c1cnc(-c2ccc(C)cc2)[nH]c1=O`, the activity change, negative = inhibition in test [1] is -8.94%; in test [2], -4.61%; in test [3], -0.507%; in test [4], -6.74%; in test [5], 1.06%.

In the case of `CCC[C@@H]1CN(C(=O)CCn2cc(Cl)cn2)C[C@H]1C(=O)O`, the activity change, negative = inhibition in test [1] is -0.752%; in test [2] it was 1.13%; in test [3], 1.27%; in test [4], -0.589%; in test [5], 2.47%.

As for `CC(C)CN1CCN(C(=O)c2ccc3c(c2)CC(=O)N3Cc2ccc(F)cc2)CC1`, the activity change, negative = inhibition is -4.56% in test [1]; 0.209% in test [2]; -13.9% in test [3]; -11.6% in test [4]; -5.36% in test [5].

With `COCCCN1CC2(CCN(C(=O)c3cc(C(C)C)oc3C)CC2)CC1=O`, the activity change, negative = inhibition is -1.2% in test [1]; -0.043% in test [2]; 3.25% in test [3]; 2.71% in test [4]; 2.81% in test [5].

For `COc1ccccc1OCC(O)CN1CCN(CC(=O)Nc2c(C)cccc2C)CC1` (stereo not given), the activity change, negative = inhibition in test [1] is 2.96%; in test [2] it was 7.74%; in test [3] it was 7.71%; in test [4], -7.28%; in test [5], 0.412%.

`CC1(C)C(=O)Nc2ccc(S(=O)(=O)N3CCCC(c4nn[nH]n4)C3)cc21` (stereo not given): the activity change, negative = inhibition in test [1] is -4.19%; in test [2] it was -2.49%; in test [3] it was 1.35%; in test [4], -6.24%; in test [5] it was -0.885%.

On to `Cc1coc2c1CC1OC1(C)CCC1OC1(C)C2` (stereo not given), for which the activity change, negative = inhibition in test [1] was -0.16%; in test [2], -3.06%; in test [3], 8.94%; in test [4], -13.7%; in test [5], 2.03%.

Consider `O=[N+]([O-])c1cccc2cn[nH]c12`, for which the activity change, negative = inhibition is -8.03% in test [1]; 14.9% in test [2]; 5.71% in test [3]; -26.9% in test [4]; 5.12% in test [5].

In the case of `Cc1nnc2n1CCC(NC(=O)c1cccn1C)CC2` (stereo not given), the activity change, negative = inhibition in test [1] is -3.83%; in test [2], -2.46%; in test [3] it was -1.99%; in test [4], -5.44%; in test [5], -6.34%.

On to `CC(C)CC(=O)O[C@@H]1O[C@H](CO)[C@@H](O[C@H]2O[C@H](C)[C@@H](N[C@H]3C=C(CO)[C@@H](O[C@H]4O[C@H](CO)[C@@H](O[C@H]5O[C@H](CO)[C@@H](O[C@H]6O[C@H](CO)[C@@H](O)[C@H](O)[C@H]6O)[C@H](O)[C@H]5O)[C@H](O)[C@H]4O)[C@H](O)[C@H]3O)[C@H](O)[C@H]2O)[C@H](O)[C@H]1O`, for which the activity change, negative = inhibition in test [1] is 2.7%; in test [2], 0.366%; in test [3] it was -2.77%; in test [4], -10.3%; in test [5] it was 1.66%.

Take `C=CCCC(CN1CCOCC1)Oc1ccc(Cn2ccnc2)cn1` (stereo not given): the activity change, negative = inhibition in test [1] is -2.54%; in test [2], -4.89%; in test [3] it was -2.36%; in test [4] it was -6.51%; in test [5], -0.568%.

For the compound `CCCn1c(=O)c2ccc(C(=O)NC(C)C)cc2n2c(=O)n(CC(=O)NCc3ccc(Cl)cc3)nc12`, the activity change, negative = inhibition was 0.554% in test [1]; 0% in test [2]; 1.09% in test [3]; -6.7% in test [4]; -2.88% in test [5].

In the case of `C/C1=C\CCC(C)CCO[C@@H]2O[C@H](CO[C@@H]3OC[C@H](O)[C@H](O)[C@H]3OC1=O)[C@@H](O)[C@H](O)[C@H]2O` (stereo not given in full), the activity change, negative = inhibition is 2.37% in test [1]; -0.888% in test [2]; 7.23% in test [3]; -12% in test [4]; -8.57% in test [5].

Regarding `COc1cc(/C=C(\C#N)C(=O)Nc2nnc(C(F)(F)F)s2)ccc1OCc1ccc(C(F)(F)F)cc1C(F)(F)F`, the activity change, negative = inhibition is -25.5% in test [1]; 0.961% in test [2]; -10.3% in test [3]; -20.6% in test [4]; -1.12% in test [5].

Turning to `CCCCc1cc(C[C@@H]2C[C@H](NC(=O)NCC)C2(C)C)no1`, the activity change, negative = inhibition in test [1] is -6.04%; in test [2], -7.67%; in test [3], -2%; in test [4] it was -8.17%; in test [5] it was -3.8%.

In the case of `CC1=CC2/C=C(\C)CCC(O)C/C=C/C(=O)OC23C(=O)NC(CC(C)C)C3C1C` (stereo not given), the activity change, negative = inhibition in test [1] was -7.68%; in test [2], 6.99%; in test [3], 6.17%; in test [4] it was -7.67%; in test [5], -5.01%.

As for `CC(C)C(=O)N1CCC(NCCOc2ccccc2Cl)CC1`, the activity change, negative = inhibition was -1.65% in test [1]; 1.37% in test [2]; -1.8% in test [3]; -4.93% in test [4]; -8% in test [5].

In the case of `CC1(C(=O)NC2CCCCC2)Cn2c(cc3sccc32)C(=O)N1Cc1ccccn1` (stereo not given), the activity change, negative = inhibition came out at 5.73% in test [1]; 3.17% in test [2]; 7.62% in test [3]; 4.22% in test [4]; 4.44% in test [5].

`CC1(C(=O)NC2CCCCC2)Cn2c(cc3ccccc32)C(=O)N1Cc1ccc2c(c1)OCO2` (stereo not given): the activity change, negative = inhibition was -14.9% in test [1]; -1.67% in test [2]; -7.77% in test [3]; -18.2% in test [4]; -6.87% in test [5].

Regarding `CN(Cc1cccn1C)C(=O)c1ccccc1F`, the activity change, negative = inhibition in test [1] was -2.39%; in test [2], -3.33%; in test [3], -0.938%; in test [4], -13.5%; in test [5] it was -18.9%.

Turning to `CCOC(=O)c1cc2n(n1)CC(C)(C(=O)NC1CCCCC1)N(c1ccccc1F)C2=O` (stereo not given), the activity change, negative = inhibition in test [1] was 1.75%; in test [2], 0%; in test [3] it was -4.68%; in test [4], 7.03%; in test [5], 1.56%.

As to `COc1ccc(C(=O)N2CCCCC(NC(=O)NCc3ccco3)C2)cc1` (stereo not given), the activity change, negative = inhibition in test [1] was -1.69%; in test [2], -4.41%; in test [3] it was -8.38%; in test [4] it was -5.27%; in test [5], -3.96%.
